The whole screen tested about 410,000 compounds, of which about 6,400 (1.6%) were called active. The shares of active, inactive and inconclusive entries below differ from those in the screen. The call rests on the fitted dose curve; in most records, active means well fitted inhibition curve with a large enough effect; inconclusive means small, poorly fitted or top-dose-only effect; inactive means no such curve, though single readings can be large or run the other way. Potencies of inconclusive entries are left out as doubtful fits.
What follows are molecules tested against Glucagon-like peptide 1 receptor (Homo sapiens) (UniProt P43220) (assay: qHTS of GLP-1 Receptor Inverse Agonists (Inhibition Mode)). Settings: HEK293 GLP-1R CRE-luciferase, luminescence, 24 h, GLP-1R form is constitutively active; series mostly up to 38.3 µM.
UniProt P43220, sequence (P43220 whole entry, looked up): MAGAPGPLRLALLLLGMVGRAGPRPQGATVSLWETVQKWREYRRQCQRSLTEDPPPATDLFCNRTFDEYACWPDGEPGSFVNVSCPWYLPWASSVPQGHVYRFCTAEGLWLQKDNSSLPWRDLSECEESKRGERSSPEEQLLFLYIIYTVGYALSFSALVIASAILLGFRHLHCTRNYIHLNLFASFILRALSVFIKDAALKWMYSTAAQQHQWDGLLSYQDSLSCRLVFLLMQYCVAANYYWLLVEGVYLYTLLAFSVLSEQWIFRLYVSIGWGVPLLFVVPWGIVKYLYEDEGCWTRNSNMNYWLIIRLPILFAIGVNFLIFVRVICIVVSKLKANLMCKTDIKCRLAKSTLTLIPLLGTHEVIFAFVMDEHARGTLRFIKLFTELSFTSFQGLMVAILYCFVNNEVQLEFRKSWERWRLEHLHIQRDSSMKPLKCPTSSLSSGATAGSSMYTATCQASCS
Procedure, shortened: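 Cells are plated, allowed 12 hours at 37 deg C, then treated with compounds for 24 hr before luciferase detection reagent is added and luminescence is read after 12 min at room temperature. The HEK293 line carries constitutively active GLP-1R with a cAMP-responsive reporter.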
For `COC(=O)C1(C(C[N+](=O)[O-])c2ccc(C)cc2)C(=O)NCC1c1ccco1` (configuration not stated), the Potency was inconclusive [inhibitor, single point]. `Cc1cc(C)cc(NC(=S)N(CCN2CCCCC2)Cc2ccco2)c1` was tested, and the Potency was inconclusive [inhibitor, partial curve, poor fit]. With `COc1ccc(CNC(=O)c2cc3c(=O)n(Cc4ccc(OC)cc4)ccc3nc2C)cc1` the Potency was inconclusive [inhibitor, full curve, poor fit]. For `COC(=O)C1=C(N)c2c(F)cccc2C1(C#N)c1ccc(F)cc1` (configuration not stated), the Potency was inconclusive [inhibitor, single point]. `Cc1ccc(-c2nc(CS(=O)(=O)CC(=O)N3CCN(c4ccccc4)CC3)c(C)o2)cc1` was tested, and the Potency was inconclusive [inhibitor, single point]. `Cc1cccc(NC(=O)CSc2nc3ccc(NC(=O)CCc4ccccc4)cc3s2)c1` was tested, and the Potency was “inactive”. For `CCCCCCNC(=O)CC(c1ccccc1)c1cc(Br)ccc1O` (configuration not stated), the Potency was inconclusive [inhibitor, partial curve, poor fit]. In the case of `CCCSCCCNC(=O)c1sc2nc(C)cc(C)c2c1-n1cccc1`, the Potency is reported as inconclusive [inhibitor, partial curve, poor fit]. In the case of `Cc1cc(C)c2oc(C(=O)N3CCN(Cc4ccccc4)CC3)cc(=O)c2c1`, the Potency is reported as “inactive”. For `CC(C(=O)NC1(C#N)CCCCC1)N(C)CC(=O)Nc1ccc(Cl)c(Cl)c1` (configuration not stated), the Potency was inconclusive [inhibitor, single point]. `Cc1cc(-c2ccc(C)c(S(=O)(=O)NCCc3ccco3)c2)on1` was tested, and the Potency was inconclusive [inhibitor, full curve, poor fit]. In the case of `CC(=O)Nc1ccc(S(=O)(=O)NCCS(=O)(=O)N2CCN(c3ccccc3)CC2)cc1`, the Potency is reported as inconclusive [inhibitor, full curve, poor fit]. In the case of `O=S1(=O)c2ccccc2N(Cc2ccc(F)cc2)c2ccccc21`, the Potency is reported as inconclusive [inhibitor, partial curve, poor fit]. With `CCCc1cc(=O)[nH]c(SCc2nc(-c3ccccc3)no2)n1` the Potency was “inactive”. In the case of `COc1cc(OCc2ccccc2)c(OC)c(OCc2ccccc2)c1`, the Potency is reported as inconclusive [inhibitor, partial curve, poor fit]. In the case of `Fc1ccc(Oc2cnc3ccccc3n2)cc1`, the Potency is reported as inconclusive [inhibitor, single point]. In the case of `Cc1ccc2ccccc2c1NC(=O)CNCc1ccccc1`, the Potency is reported as inconclusive [inhibitor, single point]. In the case of `CCN1C(=O)[C@@H]2[C@@H](c3ccc(-c4ccc(Cl)c(Cl)c4)cc3)N3CCC[C@@]3(C(=O)OC)[C@@H]2C1=O`, the Potency is reported as inconclusive [inhibitor, single point]. With `Cc1ccc(NC2CCCN(C(=O)c3ccc4[nH]ccc4c3)C2)cc1C` (configuration not stated) the Potency was inconclusive [inhibitor, single point]. In the case of `C=C(C)c1cccc(C(C)(C)NC(=O)NC2CC(C)(C)NC(C)(C)C2)c1`, the Potency is reported as inconclusive [inhibitor, single point]. With `COc1ccccc1N=Nc1ccc(O)c2ncccc12` the Potency was inconclusive [inhibitor, partial curve, poor fit]. For `Cc1ccsc1-c1nc(CSCC(=O)NCc2ccc3c(c2)OCO3)c(C)o1`, the Potency was inconclusive [inhibitor, partial curve, poor fit]. `COc1ccc(/C=C/C(=O)c2ccccc2)c(OC)c1` was tested, and the Potency was inconclusive [inhibitor, partial curve]. `CC(C)(C)NC(=O)C(c1ccc(-c2ccccc2)cc1)N(C[C@H]1CC[C@@H]([C@@H]2CC[C@H](CO)O2)O1)C(=O)c1ccc(-c2ccccc2)cc1` (some centres not stated) was tested, and the Potency was inconclusive [inhibitor, single point]. In the case of `CCOC(=O)Cc1csc(NC(=O)Nc2ccc(OC(F)(F)F)cc2)n1`, the Potency is reported as inconclusive [inhibitor, partial curve, poor fit]. In the case of `N#CCC(=O)N/N=C\c1cc(Br)ccc1OC/C=C/c1ccccc1`, the Potency is reported as “inactive”. With `CCOc1ccc(-n2ccnc(SCC(=O)Nc3cccc(OC)c3)c2=O)cc1` the Potency was inconclusive [inhibitor, single point]. For `O=C(C[n+]1ccc2ccccc2c1)c1ccc(NC(=O)c2ccccc2)cc1`, the Potency was inconclusive [inhibitor, single point]. For `Cc1ccc(S(=O)(=O)Nc2cccc3c2O[C@H](CN(C)Cc2ccc(-c4ccccc4)cc2)[C@@H](C)CN([C@H](C)CO)C3=O)cc1`, the Potency was inconclusive [inhibitor, single point]. `O=C(Nc1ccc(Cl)c(C(F)(F)F)c1)c1ccncc1` was tested, and the Potency was inconclusive [inhibitor, partial curve, poor fit]. `Cc1cc(C)c(C)c(S(=O)(=O)N2C(=S)NC(=O)C2CC(C)C)c1C` (configuration not stated) was tested, and the Potency was inconclusive [inhibitor, partial curve, poor fit]. In the case of `CCCc1c(-c2ccc(F)cc2)ncn1Cc1ccccc1OC`, the Potency is reported as inconclusive [inhibitor, partial curve, poor fit]. With `Cc1ccc(C(=O)NCCN2C3=NC[C@H](C(C)C)N3C[C@H]2Cc2ccc(O)cc2)cc1Br` the Potency was inconclusive [inhibitor, single point]. In the case of `O=c1cc(-c2c(F)c(F)c(F)c(F)c2F)oc2ccccc12`, the Potency is reported as “inactive”. For `CCCN1C(=O)C(=O)c2cc(Cl)ccc21`, the Potency was “inactive”. In the case of `Cc1cc2nc(-c3ccc(Cl)cc3)c(CC3CCCCC3)n2c(C)c1Br`, the Potency is reported as inconclusive [inhibitor, single point]. With `CC1=C(C(=O)N(C(C)C)C(C)C)CC(CC(=O)NCCCCc2ccccc2)C(=O)N1Cc1ccccc1` (configuration not stated) the Potency was inconclusive [inhibitor, partial curve, poor fit]. `C/C(=N/NC(=O)c1ccc(C(C)(C)C)cc1)c1ccccn1` was tested, and the Potency was active: 2.51 µM. With `O=C(COC(=O)COc1ccc(Cl)cc1Cl)NC1CC1` the Potency was “inactive”. `COc1ccccc1-c1cnc(C(O)c2cc(C)c(OC)c(C)c2)[nH]1` (configuration not stated) was tested, and the Potency was inconclusive [inhibitor, partial curve, poor fit]. For `CCc1noc(C)c1C(=O)Oc1ccc(N(C)S(=O)(=O)c2ccccc2)cc1`, the Potency was inconclusive [inhibitor, partial curve, poor fit]. `CC(C)[C@H](NC(=O)c1ccccc1)C(=O)OCC(=O)/C=C1/N(C)c2ccccc2C1(C)C` was tested, and the Potency was inconclusive [inhibitor, single point]. `C=CC[C@@H](CC(=O)N[C@@H](CO)Cc1ccccc1)C(=O)NC[C@@H](OC(=O)[C@@H](CC=C)Cc1ccc(F)cc1)c1ccccc1` was tested, and the Potency was “inactive”. In the case of `O=C(CCSc1nc(-c2ccco2)cc(C(F)(F)F)n1)Nc1ccc2c(c1)OCO2`, the Potency is reported as inconclusive [inhibitor, partial curve, poor fit]. For `Cc1cc(C)nc(SC2c3cccc4cccc(c34)C2NS(=O)(=O)c2ccccc2)n1` (configuration not stated), the Potency was inconclusive [inhibitor, partial curve, poor fit]. For `CC(C)C(C)(C#N)NC(=O)CSc1nc(C2CCCCC2)n(-c2ccccc2)n1` (configuration not stated), the Potency was inconclusive [inhibitor, partial curve, poor fit]. With `COc1ccc(-c2cccc(-c3cc(=O)oc4cc(OC)c(OC)c(OC)c34)c2)cc1` the Potency was inconclusive [inhibitor, partial curve, poor fit]. With `COC(=O)c1ccc(CN2CCCC(C(=O)c3ccccc3OC)C2)cc1` (configuration not stated) the Potency was inconclusive [inhibitor, partial curve]. For `CCCN1CCN(C(=S)Nc2sc(CC)cc2C(=O)OC)CC1`, the Potency was inconclusive [inhibitor, single point]. For `Cc1ccc(NC(=O)CSc2nc3n[nH]c(C)c3c(=N)n2-c2ccccc2C)cc1C`, the Potency was inconclusive [inhibitor, single point]. `CN(C)c1cc[n+](CC(=O)Nc2cc(C(F)(F)F)ccc2Cl)cc1` was tested, and the Potency was inconclusive [inhibitor, partial curve, poor fit]. With `O=C1CC(N2CCSCC2)C(=O)N1c1cccc(Cl)c1` (configuration not stated) the Potency was “inactive”. `COc1ccc(C(=O)NNC(=O)c2ccccn2)cc1` was tested, and the Potency was inconclusive [inhibitor, full curve, poor fit]. For `CC1CCN(CCCn2c(SCC(=O)Nc3ccccc3Cl)nc3ccccc3c2=O)CC1`, the Potency was inconclusive [inhibitor, partial curve, poor fit]. In the case of `CC1CCCCN1CCCNC(=O)Cn1ncc2c3ccccc3n(Cc3ccccc3)c2c1=O` (configuration not stated), the Potency is reported as “inactive”. In the case of `COc1ccccc1-c1nnc(-c2ccc(N3CCOCC3)cc2)o1`, the Potency is reported as “inactive”. `NC(N)=N/N=C/c1ccccc1` was tested, and the Potency was “inactive”. For `CCOc1ccccc1-c1nc2c([nH]1)c(=O)n(C)c(=O)n2C`, the Potency was “inactive”. In the case of `COCCNC(=S)Nc1cc2oc3ccccc3c2cc1OC`, the Potency is reported as inconclusive [inhibitor, partial curve, poor fit]. For `c1ccc(-c2ccccc2OCCCCN2CCCCC2)cc1`, the Potency was inconclusive [inhibitor, partial curve, poor fit]. With `CCCCCn1c(=O)[nH]c2cc(C(=O)NCCCN3CCC(C)CC3)ccc2c1=O` the Potency was “inactive”. `O=C(CNCCC1=CCCCC1)Nc1ccccc1N1CCCCCC1` was tested, and the Potency was inconclusive [inhibitor, single point].

Source: PubChem BioAssay AID624417 (National Center for Advancing Translational Sciences (NCATS), 2012)
Further: nearly all actives have a fitted effect of over 55% in size.
Potency means the concentration at half of the fitted maximal effect; tags describe the fitted curve by direction and shape.
